Results on 95 molecules are retold here after PubChem BioAssay AID485344 (National Center for Advancing Translational Sciences (NCATS), 2010).

Hit rate of the full screen: of about 340,000 compounds, about 6,900 (2%) were called active. No stated cut-off is given here; in the data, active means inhibition above about 30%; inactive means below that, where a call was filed. The entries are a selection whose mix differs from that of the whole data set. Where no call is shown, the source filed none.

In the assay the target is D(2) dopamine receptor (Homo sapiens) (UniProt P14416). As to the kind of experiment: HTS Assay for Allosteric Antagonists of the Human D2 Dopamine Receptor: Primary Screen for Antagonists. Further: 0% is about no effect. The settings on record: HEK293 TREx D2 cells, calcium flux, dopamine EC80; at 10 µM; stronger effect = higher value. The method, boiled down: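 Calcium mobilization kinetics were recorded at 1 s intervals in tetracycline-induced HEK293 T-REx D2 cells, first for 180 s after compound addition and then 180 s after EC80 dopamine.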
Sequence of UniProt P14416 (P14416 whole entry, looked up): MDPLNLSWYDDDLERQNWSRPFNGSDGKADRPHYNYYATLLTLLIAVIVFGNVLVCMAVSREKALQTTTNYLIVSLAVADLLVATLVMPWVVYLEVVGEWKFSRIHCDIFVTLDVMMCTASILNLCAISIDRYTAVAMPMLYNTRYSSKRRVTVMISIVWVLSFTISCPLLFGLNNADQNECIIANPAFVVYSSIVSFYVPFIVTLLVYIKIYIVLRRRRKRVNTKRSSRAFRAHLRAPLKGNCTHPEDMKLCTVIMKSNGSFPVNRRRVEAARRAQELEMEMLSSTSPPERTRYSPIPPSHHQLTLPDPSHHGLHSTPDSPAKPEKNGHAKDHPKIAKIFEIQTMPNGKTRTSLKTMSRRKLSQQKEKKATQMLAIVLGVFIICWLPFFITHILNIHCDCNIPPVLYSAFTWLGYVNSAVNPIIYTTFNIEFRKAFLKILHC
With `Cc1ccc(NC(=O)CSc2nc3ccccc3c(=O)n2CCC(=O)NC2CCCCC2)cc1C`, the inhibition is -3.38%.

In the case of `Cc1cccc(N2CCN(C(=O)C3CCN(S(=O)(=O)c4c(C)noc4/C=C/c4ccccc4F)CC3)CC2C)c1` (stereo not given), the inhibition was determined as 11.3%.

For `Cc1ccc(C2C=C(c3ccccc3)Nc3nc(NS(=O)(=O)c4ccc(C)cc4)nn32)cc1` (stereo not given), the inhibition was determined as 5.94%.

Regarding `Cc1ccc2oc(=O)c3cnn(CC(=O)N4CCN(c5ccccc5F)CC4)c3c2c1`, the inhibition was 26.9%.

As to `CCc1ccccc1NC(=O)c1ccc(Cn2nc(N3CCN(c4ccccc4)CC3)ccc2=O)o1`, the inhibition is -0.809%.

With `Cc1cc(=O)n(Cc2ccccc2)c2c1c(C)nn2-c1ccccc1`, the inhibition is 3.31%.

In the case of `Cc1ccc(NC(=O)c2c3c(nc4ccccc24)C(=O)N(C2CCCCC2)C3)cc1F`, the inhibition is 0.175%.

Consider `Cc1ccccc1NC(=O)CC1NCCNC1=O` (stereo not given), for which the inhibition turned out to be 0.129%.

`C=CCc1ccccc1OCc1nc2ccc(C)cc2[nH]1`: the inhibition was -13.2%.

Take `CCOC(=O)c1c(NC(=O)CSc2nc(-c3ccc(OC)cc3)cc(C(F)(F)F)n2)sc(C)c1C`: the inhibition stood at 6.51%.

Consider `Cn1c(=O)n(CC(=O)O)c(=O)c2c1nc1n2CCCN1c1ccc(Cl)cc1`, for which the inhibition was -10.5%.

For `CCN(CC)S(=O)(=O)c1ccc2c(c1)c(=O)c(C(=O)NCCc1ccccc1)cn2C`, the inhibition stood at 5.13%.

`COc1ccc(C2CC(=O)c3cnc4c(-c5ccc(F)cc5)c(C)nn4c3C2)cc1OC` (stereo not given): the inhibition is -7.6%.

As to `Cc1csc2nc(COc3ccc(NC(=O)C(C)C)cc3)cc(=O)n12`, the inhibition was 19.6%.

With `Cc1csc2c(NC3CCN(Cc4ccccc4)CC3)ncnc12`, the inhibition was active: 89.2%.

In the case of `CCOC(=O)Cc1c(C)nc2cc(-c3ccc(C(C)(C)C)cc3)nn2c1C`, the inhibition is -10.4%.

Turning to `O=C1[C@H]2[C@@H](c3ccc(F)cc3)N3C(=O)N(c4cccc(Br)c4)C(=O)[C@@]3(Cc3ccccc3)[C@H]2C(=O)N1C1CCCCC1`, the inhibition is active: 40.9%.

For `CCc1ccc(NC(=O)C2CCCN2S(=O)(=O)c2ccc3nc(-c4ccccc4)[nH]c3c2)cc1` (stereo not given), the inhibition is -6.72%.

Turning to `Cc1ccc(C(C)C)c(OCCNCCc2ccccc2)c1`, the inhibition was active: 41.4%.

With `Cc1ccccc1C(=O)NC(CC(C)C)C(=O)NN1C(=O)c2ccccc2C1=O` (stereo not given), the inhibition is active: 30.5%.

As to `CC12CN3CC(C)(CN(C1)C3c1ccc([N+](=O)[O-])o1)C2` (stereo not given), the inhibition is active: 32.1%.

For the molecule `CCOC(=O)c1c(C)oc2nc(C)nc(NCCc3ccc(OC)c(OC)c3)c12`, the inhibition was -10.2%.

Consider `COC(=O)c1sc(N2C(=O)c3oc4ccc(C)cc4c(=O)c3C2c2ccc(O)c(OC)c2)nc1C` (stereo not given), for which the inhibition is -5.19%.

Take `CCCCC(CC)CNC(=O)CCCCn1c(=O)[nH]c2ccsc2c1=O` (stereo not given): the inhibition stood at 4.93%.

Regarding `COC(=O)c1ccc(C(=O)OC)c(NC(=O)c2c(-c3ccccc3)noc2C)c1`, the inhibition turned out to be 12.5%.

`COc1ccc(CCNc2nc(SCc3ccccc3F)nc3ccccc23)cc1OC`: the inhibition worked out at 12.4%.

Regarding `COc1cc(CN(C(=O)Nc2cccc(Cl)c2)c2ccccn2)cc(OC)c1OC`, the inhibition was found to be 11.4%.

In the case of `COC(=O)c1nnn(CC(=O)Nc2c(C)cccc2C)c1N`, the inhibition is -10.8%.

On to `CC(=O)c1cccc(NC(=O)CCn2nc(C)c(S(=O)(=O)N(C)C)c2C)c1`, for which the inhibition is 3.58%.

As for `COc1ccccc1CCN1CCCC(CN(C)C(=O)c2ccoc2)C1` (stereo not given), the inhibition was active: 41.9%.

Take `CC(C)c1ccc(S(=O)(=O)N2CCN(CC(=O)Nc3ccccc3C(F)(F)F)CC2)cc1`: the inhibition is 6.37%.

For `CC(C)CCNC(=O)c1ccc2nc(CCc3ccccc3)oc2c1`, the inhibition worked out at 8.67%.

For `CC1=C(C(N)=O)C(c2cccc(Br)c2)n2nc(SCc3ccccc3Cl)nc2N1` (stereo not given), the inhibition was determined as 2.43%.

As to `CCOc1ccc(CCNC(=O)c2cc3sccc3n2CC)cc1OCC`, the inhibition is -4.49%.

As to `Fc1ccc(CSc2nncn3c2cc2occc23)c(Cl)c1`, the inhibition is -8.32%.

On to `Cc1cc(C)c2oc(-c3ccc(NC(=O)COc4ccccc4C)cc3)nc2c1`, for which the inhibition came to 6.08%.

With `COCCSc1ccccc1C(=O)Nc1ccc(Cl)cc1`, the inhibition was active: 57.7%.

For `Cc1nn(CC(=O)NCCc2ccccc2)c(=O)c2nn(-c3ccccc3)c(C)c12`, the inhibition was -13.5%.

As for `COc1cc(C2C(C(=O)Nc3ccc(Cl)cc3)=C(C)Nc3nc(SC)nn32)cc(OC)c1OC` (stereo not given), the inhibition was -8.11%.

`Cc1ccc(N(C)S(=O)(=O)c2ccc(-c3coc(C)n3)cc2)cc1`: the inhibition turned out to be 3%.

As for `CC1=C(c2ccc(C)c(C)c2)S(=O)(=O)N=C1N1CCC(C(=O)NCc2ccccc2C)CC1`, the inhibition was -10.7%.

For the molecule `Cc1cccc(-c2noc(-c3ccc(NCc4ccccc4)c([N+](=O)[O-])c3)n2)c1`, the inhibition was -28.5%.

Regarding `CC(CCc1ccccc1)NC(=O)c1cnc(Cl)c(Cl)c1` (stereo not given), the inhibition was active: 43.2%.

Regarding `Cc1ccc(NC(=O)CN2C(=O)COc3ccc(S(=O)(=O)N4CCOCC4)cc32)cc1N(C)C`, the inhibition was -8.92%.

`CCCCCOc1ccccc1CN1C(=O)C(=O)c2cc(C)ccc21`: the inhibition stood at 5.49%.

Turning to `Cc1ccc(/C=C/C(=O)N2CCC(c3nc4ccccc4o3)CC2)cc1`, the inhibition was -22%.

Regarding `COc1ccc(NC(=O)c2c(NCc3ccc(OC)c(OC)c3OC)sc3c2CCC3)c(OC)c1`, the inhibition is -25.3%.

Consider `Cc1ccc(-n2nc3c(N4CCC(C(=O)NC5CCCCC5)CC4)nnc(C)c3c2C)cc1`, for which the inhibition was -1.81%.

Turning to `Cc1cc2oc(C(=O)Nc3ccc(S(=O)(=O)N4CCC(C)CC4)cc3)cc(=O)c2cc1C`, the inhibition was 22.8%.

Regarding `CC(C)Cc1ccc(S(=O)(=O)NCc2nc3cccnc3n2Cc2ccccc2)cc1`, the inhibition was -3.44%.

`COc1ccc(-n2ncc(C(=O)N3CCN(C(=O)c4ccco4)CC3)c2C2CCN(C(=O)OC(C)(C)C)CC2)cc1`: the inhibition was -7.97%.

Turning to `COc1ccc(-c2ccc(CNCCCSc3nnnn3C)o2)cc1Cl`, the inhibition was found to be 1.89%.

Regarding `CCn1ccc2cc(S(=O)(=O)N3CCCN(C(=O)Nc4cccc(SC)c4)CC3)ccc21`, the inhibition was determined as 16%.

As to `CCCCN(C)S(=O)(=O)c1ccc(NC2=NS(=O)(=O)c3ccccc32)cc1`, the inhibition amounted to 8.8%.

`Cc1ccc(CNC(=O)C2CCC(CNS(=O)(=O)c3ccc(C)cc3)CC2)cc1` (stereo not given): the inhibition came to 5.3%.

Take `CCN(CC)S(=O)(=O)c1cc(NC(=O)C2CCN(c3ncnc4sc(C)c(C)c34)CC2)ccc1Cl`: the inhibition is active: 36.5%.

With `COc1ccc(-n2ccnc2SCC(=O)Nc2cccc(OC)c2)cc1`, the inhibition is -21.2%.

On to `Cc1ccc(NC(=O)Cn2cc(C(=O)c3ccco3)c3ccccc32)cc1C`, for which the inhibition worked out at 13.2%.

Turning to `Cc1cc(OC(C)C(=O)N2CCC(c3nc4ccccc4o3)CC2)ccc1Cl` (stereo not given), the inhibition turned out to be 1.23%.

Regarding `COc1cccc(CNC(=O)Cn2nc(-c3ccc(C)cc3)ccc2=O)c1`, the inhibition stood at 3.15%.

Consider `Cc1ccc(N(C)C(CNS(=O)(=O)c2ccccc2)c2ccccc2)cc1` (stereo not given), for which the inhibition was -5.03%.

For the molecule `COc1ccccc1NC(=O)CSc1ccc(-c2ccccn2)nn1`, the inhibition is 6.14%.

Regarding `Cc1ccc(CSCCNC(=O)C2CCN(S(=O)(=O)Cc3ccccc3)CC2)cc1`, the inhibition turned out to be 15.7%.

For `COc1cccc(OC(=O)CSc2nnc(-c3cccs3)o2)c1`, the inhibition came to 26%.

With `Cc1cc2nn(-c3ccc(F)cc3)nc2cc1NC(=O)c1cccc([N+](=O)[O-])c1C`, the inhibition stood at 12.6%.

Regarding `CC(=O)Nc1ccc(Nc2nc3c(S(=O)(=O)c4cc(C)ccc4C)nnn3c3ccsc23)cc1`, the inhibition is -12%.

In the case of `Clc1cccc(-c2nc3ccccn3c2Nc2ccc3c(c2)OCCO3)c1`, the inhibition came to 2.87%.

On to `COC(=O)c1ccc(Nc2nc(-c3ccccc3Cl)nc3ccccc23)cc1`, for which the inhibition was -4.95%.

Regarding `COc1ccc(N2C(=O)CSC23C(=O)N(CC(=O)Nc2ccccc2F)c2ccccc23)cc1` (stereo not given), the inhibition is -1.23%.

For the molecule `Cc1cccc(C(=O)Nc2cc3nn(-c4ccc(C(C)C)cc4)nc3cc2C)c1`, the inhibition was determined as 6.75%.

Take `CCCCCCNC(=O)c1c[nH]c2ccc(S(=O)(=O)N(C)c3ccc(C(C)C)cc3)cc2c1=O`: the inhibition is -12.9%.

Turning to `N#C/C(=C/c1ccccc1Cl)c1nc2ccccc2c(=O)[nH]1`, the inhibition was 0.836%.

`Cc1ccc(Cl)cc1N(C)C(=O)c1cc2c(Cl)nc3ccccc3c2s1`: the inhibition was -12.5%.

Turning to `COc1ccc(N2CCN(C3(c4ccccc4)C(=O)c4ccccc4C3=O)CC2)cc1`, the inhibition is -4.77%.

Regarding `Cc1ccc(Cn2c(CO)cnc2SCC(=O)NCc2ccccc2Cl)cc1`, the inhibition is -7.97%.

Turning to `O=C(C1CCC(Cn2c(=O)c3sccc3n(Cc3cccc(F)c3)c2=O)CC1)N1CCOCC1` (stereo not given), the inhibition was 11.1%.

With `Cc1cccn2c(=O)c3cc(C#N)c(=O)n(-c4nnc(SCc5ccc(F)cc5)s4)c3nc12`, the inhibition was 4.12%.

Take `CSc1ccc(CN2CCCC(CNC(=O)c3ccc(F)cc3)C2)cc1` (stereo not given): the inhibition was active: 40.7%.

On to `Cc1cc(C)c(NC(=O)CSc2nc(=O)n(Cc3cccnc3)c3c2CCC3)c(C)c1`, for which the inhibition is 11.4%.

Regarding `COc1ccccc1Nc1ncc2c(n1)CCN(Cc1cc(F)cc(F)c1)C2`, the inhibition is -9.76%.

As to `Cn1c(SCC(=O)Nc2nc3ccccc3s2)ncc(C(=O)Nc2ccc(Cl)cc2)c1=O`, the inhibition is -20.6%.

`CCOCCCNC(=O)c1cn(CC(C)C)c(=O)c2c1c1ccccc1n2C`: the inhibition is -8.92%.

`COc1cccc(NC(=O)Cn2nnc(C(=O)NCc3ccc4c(c3)OCO4)c2N)c1`: the inhibition was 7.95%.

Turning to `CCN1CCN(c2ncc3c(n2)CCN(Cc2cccc(F)c2F)C3)CC1`, the inhibition stood at 7.81%.

As for `COC(=O)c1ccccc1NC(=O)c1nn(C)c2c1COc1ccccc1-2`, the inhibition is 15.9%.

Consider `CCOc1ccc(NC(=O)CCc2c(C)nc3nc(-c4cc(OC)cc(OC)c4)nn3c2C)cc1`, for which the inhibition is -8.67%.

For the molecule `COc1cccc(NC(=O)/C(C#N)=C/c2c(C)n(Cc3ccccc3)c3ccccc23)c1`, the inhibition is -10%.

`CCOC(=O)c1c(C)[nH]c(C)c1S(=O)(=O)N1CCCC(C(=O)Nc2cccc(CC)c2)C1` (stereo not given): the inhibition is 13.3%.

Consider `c1ccc(-c2cnc(CN3CCN(c4ccccc4)CC3)o2)cc1`, for which the inhibition was active: 77.7%.

In the case of `O=C(Nc1ccc(Cl)c(C(F)(F)F)c1)c1nc2ccccc2nc1N1CCCCC1`, the inhibition is -18.1%.

As for `COc1ccc(-c2[nH]c3c(c2-c2c(-n4cccc4)n(C)c(=O)[nH]c2=O)c(=O)[nH]c(=O)n3C)cc1F`, the inhibition was found to be 2.86%.

Take `COc1ccc(-n2nnc(-c3nsc(NC(=O)c4cccc(C)c4)n3)c2C)cc1OC`: the inhibition was -5.08%.

For the molecule `COc1ccccc1Nc1nc(N)nc(N)c1S(=O)(=O)c1ccccc1`, the inhibition was -12.3%.

On to `Cc1ccc(-c2c3c(=O)n(C)c(=O)n(C)c3c3cnc4ccccc4n23)cc1`, for which the inhibition came out at 11.3%.

In the case of `Cc1ccc(S(=O)(=O)CC(=O)Nc2nc3c(C)cccc3s2)cc1`, the inhibition is -1.33%.
